Our source for the binding values is PMC3424240.

By UniProt entry, the sequences of proteins in these tests, tags left out. Where a name states a change or a piece, a line headed by the entry shows the natural chain unless it says otherwise. Residues count along the entry.
UniProt O15047: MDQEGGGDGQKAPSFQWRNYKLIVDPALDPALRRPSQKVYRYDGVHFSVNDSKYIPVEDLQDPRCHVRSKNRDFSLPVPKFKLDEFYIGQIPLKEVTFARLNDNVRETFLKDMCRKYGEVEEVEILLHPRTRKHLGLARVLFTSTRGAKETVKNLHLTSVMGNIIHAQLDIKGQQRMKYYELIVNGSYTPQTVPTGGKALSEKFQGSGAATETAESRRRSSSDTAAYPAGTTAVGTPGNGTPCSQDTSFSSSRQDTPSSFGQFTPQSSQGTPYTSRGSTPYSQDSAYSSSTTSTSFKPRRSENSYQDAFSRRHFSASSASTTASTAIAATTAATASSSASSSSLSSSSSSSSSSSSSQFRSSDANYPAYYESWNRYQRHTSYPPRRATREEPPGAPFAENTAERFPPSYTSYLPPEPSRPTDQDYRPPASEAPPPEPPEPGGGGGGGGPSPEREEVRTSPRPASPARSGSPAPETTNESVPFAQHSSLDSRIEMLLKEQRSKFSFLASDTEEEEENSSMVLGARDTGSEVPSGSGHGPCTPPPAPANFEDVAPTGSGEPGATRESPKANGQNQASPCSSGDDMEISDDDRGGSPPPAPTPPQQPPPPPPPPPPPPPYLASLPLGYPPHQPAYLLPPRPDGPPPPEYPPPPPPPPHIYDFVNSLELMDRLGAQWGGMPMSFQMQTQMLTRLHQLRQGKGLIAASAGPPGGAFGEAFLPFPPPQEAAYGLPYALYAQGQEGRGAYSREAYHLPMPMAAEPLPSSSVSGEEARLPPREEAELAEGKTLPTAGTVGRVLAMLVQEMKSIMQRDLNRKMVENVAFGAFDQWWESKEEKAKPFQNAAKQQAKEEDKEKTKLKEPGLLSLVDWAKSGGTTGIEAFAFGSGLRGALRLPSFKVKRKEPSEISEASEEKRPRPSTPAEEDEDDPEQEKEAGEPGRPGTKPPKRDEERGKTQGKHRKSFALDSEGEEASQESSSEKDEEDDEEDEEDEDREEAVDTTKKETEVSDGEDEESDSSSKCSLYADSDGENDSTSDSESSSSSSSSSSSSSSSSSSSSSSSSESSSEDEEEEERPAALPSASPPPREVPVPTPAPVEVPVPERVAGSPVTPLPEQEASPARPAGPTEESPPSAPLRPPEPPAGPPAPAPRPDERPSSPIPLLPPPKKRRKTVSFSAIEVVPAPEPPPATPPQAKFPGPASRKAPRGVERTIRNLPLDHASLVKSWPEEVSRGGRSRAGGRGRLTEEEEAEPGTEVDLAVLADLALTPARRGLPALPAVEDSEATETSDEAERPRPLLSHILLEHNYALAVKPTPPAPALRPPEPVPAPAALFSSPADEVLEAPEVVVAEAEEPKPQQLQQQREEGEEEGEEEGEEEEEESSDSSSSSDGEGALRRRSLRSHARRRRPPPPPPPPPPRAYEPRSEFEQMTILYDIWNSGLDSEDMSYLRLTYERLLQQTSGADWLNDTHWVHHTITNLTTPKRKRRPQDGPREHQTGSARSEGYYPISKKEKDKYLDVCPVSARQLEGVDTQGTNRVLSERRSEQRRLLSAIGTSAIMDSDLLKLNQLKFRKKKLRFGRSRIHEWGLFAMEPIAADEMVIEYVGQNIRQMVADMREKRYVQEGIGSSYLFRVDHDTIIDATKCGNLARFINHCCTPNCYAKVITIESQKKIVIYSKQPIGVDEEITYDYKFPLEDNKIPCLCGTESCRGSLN
FLAG-Setd1a (aa 247–1408): residues 247-1408 of O15047
UniProt Q9CWW7: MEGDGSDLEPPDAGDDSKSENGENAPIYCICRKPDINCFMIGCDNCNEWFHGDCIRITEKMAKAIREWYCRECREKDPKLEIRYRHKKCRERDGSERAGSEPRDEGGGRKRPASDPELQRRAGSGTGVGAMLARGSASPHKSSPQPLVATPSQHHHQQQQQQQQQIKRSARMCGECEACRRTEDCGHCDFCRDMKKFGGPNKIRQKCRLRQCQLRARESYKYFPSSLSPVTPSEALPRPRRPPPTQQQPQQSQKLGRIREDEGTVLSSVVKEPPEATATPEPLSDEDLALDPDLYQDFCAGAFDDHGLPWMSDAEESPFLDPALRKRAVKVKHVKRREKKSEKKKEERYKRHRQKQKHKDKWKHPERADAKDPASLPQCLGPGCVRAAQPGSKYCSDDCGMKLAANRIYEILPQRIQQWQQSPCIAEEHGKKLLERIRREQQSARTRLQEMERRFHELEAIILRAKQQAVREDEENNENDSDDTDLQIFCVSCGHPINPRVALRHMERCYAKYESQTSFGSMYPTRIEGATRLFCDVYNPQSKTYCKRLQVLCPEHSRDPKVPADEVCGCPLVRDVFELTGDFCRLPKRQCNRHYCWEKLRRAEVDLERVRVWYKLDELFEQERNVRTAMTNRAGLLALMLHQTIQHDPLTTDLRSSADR
UniProt Q9P0U4: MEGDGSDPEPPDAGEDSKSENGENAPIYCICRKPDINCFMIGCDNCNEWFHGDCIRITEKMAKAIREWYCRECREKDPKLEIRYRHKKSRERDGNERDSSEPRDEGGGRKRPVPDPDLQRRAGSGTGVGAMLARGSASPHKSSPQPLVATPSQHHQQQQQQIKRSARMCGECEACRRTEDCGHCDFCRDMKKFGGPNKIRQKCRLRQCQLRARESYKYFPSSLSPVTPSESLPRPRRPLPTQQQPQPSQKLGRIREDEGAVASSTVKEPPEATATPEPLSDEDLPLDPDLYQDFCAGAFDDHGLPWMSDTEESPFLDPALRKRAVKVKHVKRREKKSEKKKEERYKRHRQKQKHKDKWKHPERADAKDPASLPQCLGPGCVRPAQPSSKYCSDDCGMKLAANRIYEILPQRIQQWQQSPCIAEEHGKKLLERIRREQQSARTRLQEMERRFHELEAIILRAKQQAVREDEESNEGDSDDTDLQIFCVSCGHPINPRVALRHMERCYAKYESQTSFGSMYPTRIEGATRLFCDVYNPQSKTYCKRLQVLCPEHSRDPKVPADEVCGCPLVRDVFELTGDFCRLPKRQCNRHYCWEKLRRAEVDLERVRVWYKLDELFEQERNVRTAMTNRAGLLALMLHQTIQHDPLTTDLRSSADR
UniProt Q6UXN9: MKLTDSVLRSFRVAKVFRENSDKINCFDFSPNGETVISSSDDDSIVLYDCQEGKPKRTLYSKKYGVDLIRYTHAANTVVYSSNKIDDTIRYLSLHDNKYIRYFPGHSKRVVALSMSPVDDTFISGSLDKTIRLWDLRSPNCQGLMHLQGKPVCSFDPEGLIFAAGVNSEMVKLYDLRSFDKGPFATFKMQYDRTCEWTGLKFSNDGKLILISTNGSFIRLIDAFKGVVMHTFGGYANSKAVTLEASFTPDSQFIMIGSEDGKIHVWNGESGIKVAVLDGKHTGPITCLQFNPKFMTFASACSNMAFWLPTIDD

The target of assay [1] is T1, Rbm15 of murine 6133 megakaryoblastic leukemic cells (mouse (endogenous in 6133)) (UniProt Q0VBL3).
T1 sequence: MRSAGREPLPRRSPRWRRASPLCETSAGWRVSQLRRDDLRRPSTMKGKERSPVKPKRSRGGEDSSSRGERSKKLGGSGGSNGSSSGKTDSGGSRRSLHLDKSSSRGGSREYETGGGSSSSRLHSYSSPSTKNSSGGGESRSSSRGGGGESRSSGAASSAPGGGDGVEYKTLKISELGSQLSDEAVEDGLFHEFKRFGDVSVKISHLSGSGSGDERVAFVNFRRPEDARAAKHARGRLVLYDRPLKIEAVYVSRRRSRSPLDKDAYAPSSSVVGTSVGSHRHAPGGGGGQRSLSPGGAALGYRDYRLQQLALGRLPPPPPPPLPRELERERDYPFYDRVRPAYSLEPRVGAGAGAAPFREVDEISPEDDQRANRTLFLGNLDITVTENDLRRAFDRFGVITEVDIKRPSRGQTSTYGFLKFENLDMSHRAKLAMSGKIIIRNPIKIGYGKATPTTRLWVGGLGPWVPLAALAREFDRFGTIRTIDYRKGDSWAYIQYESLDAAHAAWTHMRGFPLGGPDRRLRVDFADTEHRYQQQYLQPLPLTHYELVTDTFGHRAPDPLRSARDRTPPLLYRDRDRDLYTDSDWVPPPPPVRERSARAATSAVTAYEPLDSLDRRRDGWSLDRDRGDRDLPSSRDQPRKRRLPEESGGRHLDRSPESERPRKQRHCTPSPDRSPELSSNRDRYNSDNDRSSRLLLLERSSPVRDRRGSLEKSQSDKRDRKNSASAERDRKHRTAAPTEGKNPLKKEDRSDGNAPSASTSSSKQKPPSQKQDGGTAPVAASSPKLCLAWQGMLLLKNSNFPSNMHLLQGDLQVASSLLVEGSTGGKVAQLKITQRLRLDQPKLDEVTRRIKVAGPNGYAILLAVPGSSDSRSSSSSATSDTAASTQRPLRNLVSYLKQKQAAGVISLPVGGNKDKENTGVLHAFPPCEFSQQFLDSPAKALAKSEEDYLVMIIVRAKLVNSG
Put plainly: co-IP; immunoprecipitation with antisera against Setd1b or Rbm15 from whole cell extracts of murine 6133 megakaryoblastic leukemic cells, Western blotting. In general terms: A western blot detects proteins with antibodies after separation by electrophoresis.

In assay [2] the target is T2, FLAG-Rbm15 (human) (UniProt Q96T37).
T2 sequence: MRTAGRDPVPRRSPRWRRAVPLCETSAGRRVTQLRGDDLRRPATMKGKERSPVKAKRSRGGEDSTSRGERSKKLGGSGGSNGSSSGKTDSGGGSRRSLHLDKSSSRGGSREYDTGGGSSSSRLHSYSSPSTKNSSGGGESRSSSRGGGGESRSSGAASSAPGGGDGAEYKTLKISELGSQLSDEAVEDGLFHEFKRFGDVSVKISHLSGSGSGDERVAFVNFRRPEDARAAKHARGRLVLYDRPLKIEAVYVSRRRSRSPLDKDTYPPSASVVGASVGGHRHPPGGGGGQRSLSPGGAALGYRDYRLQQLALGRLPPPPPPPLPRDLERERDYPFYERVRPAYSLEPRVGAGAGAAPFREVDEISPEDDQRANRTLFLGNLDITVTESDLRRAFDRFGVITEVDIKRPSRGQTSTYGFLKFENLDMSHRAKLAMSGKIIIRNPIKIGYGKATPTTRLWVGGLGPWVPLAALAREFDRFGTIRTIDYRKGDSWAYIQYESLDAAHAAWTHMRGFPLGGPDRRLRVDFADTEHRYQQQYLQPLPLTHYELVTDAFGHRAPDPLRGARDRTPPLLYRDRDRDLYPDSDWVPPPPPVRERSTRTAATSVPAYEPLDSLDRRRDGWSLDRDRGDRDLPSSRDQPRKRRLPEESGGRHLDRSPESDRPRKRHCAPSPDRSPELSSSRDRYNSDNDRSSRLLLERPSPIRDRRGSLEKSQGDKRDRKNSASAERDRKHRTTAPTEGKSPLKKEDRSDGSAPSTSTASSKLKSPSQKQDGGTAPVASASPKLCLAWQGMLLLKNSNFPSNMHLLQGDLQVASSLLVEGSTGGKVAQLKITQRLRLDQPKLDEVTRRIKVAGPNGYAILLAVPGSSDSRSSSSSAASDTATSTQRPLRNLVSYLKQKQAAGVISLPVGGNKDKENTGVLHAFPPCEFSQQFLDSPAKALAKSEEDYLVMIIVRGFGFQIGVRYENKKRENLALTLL
Put plainly: co-IP; FLAG immunoprecipitation from whole cell extracts of T-REx HEK293 lines induced with 1 µg/ml doxycycline for three days, in the presence or absence of RNase A (50 ug/ml, 15 min, 37°C).

Assay [3] has as its target FLAG-Setd1a (aa 247–1408) (human) (UniProt O15047). Put plainly: co-IP; FLAG immunoprecipitation from nuclear extracts of transiently transfected HEK293 cells, Western blotting for endogenous partners.
The target of assay [4] is T3, FLAG-Setd1b (aa 225–1671) (human) (UniProt Q9UPS6).
T3 sequence: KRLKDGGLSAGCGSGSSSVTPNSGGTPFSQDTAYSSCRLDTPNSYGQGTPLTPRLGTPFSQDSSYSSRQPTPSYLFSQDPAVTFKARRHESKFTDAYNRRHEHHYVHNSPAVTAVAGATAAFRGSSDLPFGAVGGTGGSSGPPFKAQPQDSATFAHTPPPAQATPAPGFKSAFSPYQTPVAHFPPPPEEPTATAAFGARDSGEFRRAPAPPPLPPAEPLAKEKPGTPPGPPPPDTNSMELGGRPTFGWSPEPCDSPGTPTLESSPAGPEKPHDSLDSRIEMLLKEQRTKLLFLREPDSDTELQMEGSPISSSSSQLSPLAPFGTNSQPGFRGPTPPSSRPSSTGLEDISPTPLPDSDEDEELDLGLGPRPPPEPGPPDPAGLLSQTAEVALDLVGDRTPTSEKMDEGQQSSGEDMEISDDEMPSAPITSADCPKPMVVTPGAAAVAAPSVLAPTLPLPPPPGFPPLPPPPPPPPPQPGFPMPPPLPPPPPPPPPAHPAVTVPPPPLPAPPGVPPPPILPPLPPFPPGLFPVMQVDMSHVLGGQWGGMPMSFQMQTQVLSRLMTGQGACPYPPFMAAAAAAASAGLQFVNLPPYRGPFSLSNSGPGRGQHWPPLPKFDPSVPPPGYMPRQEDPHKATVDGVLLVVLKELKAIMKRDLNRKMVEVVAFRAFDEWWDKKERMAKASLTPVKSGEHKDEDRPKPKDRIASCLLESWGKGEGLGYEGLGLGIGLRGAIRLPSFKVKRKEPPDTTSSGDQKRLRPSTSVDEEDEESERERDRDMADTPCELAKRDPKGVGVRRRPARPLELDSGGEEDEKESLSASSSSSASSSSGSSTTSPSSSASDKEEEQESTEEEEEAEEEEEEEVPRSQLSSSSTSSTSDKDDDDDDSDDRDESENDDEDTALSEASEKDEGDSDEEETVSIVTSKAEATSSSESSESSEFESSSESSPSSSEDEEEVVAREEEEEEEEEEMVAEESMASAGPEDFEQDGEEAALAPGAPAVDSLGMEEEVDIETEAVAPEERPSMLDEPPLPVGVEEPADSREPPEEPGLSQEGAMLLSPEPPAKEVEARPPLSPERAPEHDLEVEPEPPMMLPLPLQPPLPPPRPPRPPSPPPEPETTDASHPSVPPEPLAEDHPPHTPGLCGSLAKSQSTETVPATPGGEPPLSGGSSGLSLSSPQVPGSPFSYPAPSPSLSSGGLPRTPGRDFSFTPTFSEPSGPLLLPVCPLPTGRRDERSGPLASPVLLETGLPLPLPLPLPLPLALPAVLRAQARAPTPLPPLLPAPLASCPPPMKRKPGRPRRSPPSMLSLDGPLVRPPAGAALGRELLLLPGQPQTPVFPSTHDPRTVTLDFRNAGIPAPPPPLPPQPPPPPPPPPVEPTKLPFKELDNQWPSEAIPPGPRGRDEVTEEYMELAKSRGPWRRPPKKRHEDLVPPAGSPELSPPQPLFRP
The assay is described as above.

Assay [5] addresses T2, FLAG-Rbm15 (human). Described as above.
Assay [6] concerns the target T4, FLAG-Rbm15 fragment aa 782 to 977 (human) (UniProt Q96T37).
T4 sequence: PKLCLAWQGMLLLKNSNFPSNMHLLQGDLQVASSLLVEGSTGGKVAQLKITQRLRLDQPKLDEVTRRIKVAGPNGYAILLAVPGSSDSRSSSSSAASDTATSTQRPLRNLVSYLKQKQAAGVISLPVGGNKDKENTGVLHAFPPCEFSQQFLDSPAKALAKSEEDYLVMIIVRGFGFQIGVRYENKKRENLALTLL
Put plainly: co-IP; FLAG immunoprecipitation from whole cell extracts of transiently transfected HEK293 cells, Western blotting for endogenous partners.

The target of assay [7] is T5, endogenous Rbm15 (human (endogenous in HEK293)) (UniProt Q96T37).
T5 sequence: T2 sequence
Put plainly: co-IP; immunoprecipitation with antisera against Setd1b or Rbm15 from nuclear extracts of HEK293 cells (endogenous proteins), Western blotting.

Assay [8] has as its target endogenous Setd1b (human (endogenous in HEK293)) (UniProt Q9UPS6). Described as above.
Assay [9] deals with T6, FLAG-Setd1b fragment (1–867 aa) (human) (UniProt Q9UPS6).
T6 sequence: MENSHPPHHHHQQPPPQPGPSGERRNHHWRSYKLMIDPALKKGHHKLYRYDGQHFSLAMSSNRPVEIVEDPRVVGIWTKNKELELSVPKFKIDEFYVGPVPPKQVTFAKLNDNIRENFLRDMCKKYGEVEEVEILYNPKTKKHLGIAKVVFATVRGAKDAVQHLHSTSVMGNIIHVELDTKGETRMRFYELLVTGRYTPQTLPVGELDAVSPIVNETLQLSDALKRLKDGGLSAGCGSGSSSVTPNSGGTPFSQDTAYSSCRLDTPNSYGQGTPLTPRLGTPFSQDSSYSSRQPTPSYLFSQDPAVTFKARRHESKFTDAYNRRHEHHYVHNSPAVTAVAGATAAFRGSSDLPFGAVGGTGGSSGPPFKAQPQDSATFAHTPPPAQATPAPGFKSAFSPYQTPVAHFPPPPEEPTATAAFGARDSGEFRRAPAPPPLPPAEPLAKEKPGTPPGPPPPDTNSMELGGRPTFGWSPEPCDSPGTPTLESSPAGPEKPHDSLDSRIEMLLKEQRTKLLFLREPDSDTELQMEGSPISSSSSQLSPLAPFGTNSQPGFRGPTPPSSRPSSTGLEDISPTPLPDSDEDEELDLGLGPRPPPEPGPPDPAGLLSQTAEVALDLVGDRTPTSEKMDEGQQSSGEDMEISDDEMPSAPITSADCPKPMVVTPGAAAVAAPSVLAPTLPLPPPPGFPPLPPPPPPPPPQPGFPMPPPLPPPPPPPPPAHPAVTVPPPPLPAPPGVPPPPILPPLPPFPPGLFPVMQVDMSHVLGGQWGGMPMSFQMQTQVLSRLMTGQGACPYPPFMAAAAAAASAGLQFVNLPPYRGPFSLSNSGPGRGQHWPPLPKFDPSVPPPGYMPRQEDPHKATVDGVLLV
Put plainly: co-IP; FLAG immunoprecipitation from whole cell extracts of transiently transfected HEK293 cells, Western blotting for endogenous partners.

Results are given in words; binding and its absence hold for the method and conditions named. Binding seen in cells or lysates may run through a third protein. Some entries that bind do so weakly or less than the wild type. For some assays here: Tags and fused reporters may be left off the sequences shown.

Regarding “Cfp1 of murine 6133 megakaryoblastic leukemic cells (from UniProt Q9CWW7 1-660)”, the binding result in assay [1] is “binds”.

With “endogenous Cfp1 (from UniProt Q9P0U4 1-656)”, the binding result with FLAG-Rbm15 (human) [2] is “binds”; in assay [3], “no binding”; in assay [4], “no binding”; with FLAG-Rbm15 (human) [5], “binds”; in [6], “binds”; in assay [7], “binds”. Also, the binding result in [8] is on record as “binds”.

On to “endogenous Setd1a (from UniProt O15047 1-1707)”, for which the binding entry (with FLAG-Rbm15 (human) [5]; in [7]; in assay [8]) was “no binding” throughout.

As for “endogenous Wdr82 (from UniProt Q6UXN9 1-313)”, the binding entry with FLAG-Rbm15 (human) [2] is reported as “binds”; in assay [3], “no binding”; in [4], “no binding”; with FLAG-Rbm15 (human) [5] it was “binds”; in [9], “binds”; in assay [6] it was “binds”.
